The list shows a part of the results.
B1: ENSG00000198589:be:win_9551|3pUTR|ENSG00000198589|bound_else_gene|NA|bound_elsewhere_windowed (ssRNA)
RNA: GGGAGUUCUACAGUCCGACGAUCUGUGUGGAAUUCUGUGAAAAAUAUUUGAGAAAAGGCCUGUAUUGCAUAAAUAAAUUCUUUGUAUGUUGUGAACUUUGAUCUCUAUUUCUCUUGCAACAGACUUCAAGUGGUCCCUCUUUUCAACAGAGGAUUGAGCAUCA
B2: chr1:89933607:89933717:+|CDS|ENSG00000171492|unk|FALSE|bound_elsewhere (ssRNA)
RNA: GGGAGUUCUACAGUCCGACGAUCCAACUUUUGGUUCAAAUAUCCCAAAACAUGCUCAAAAGUAGAACAUUUUGUUUCAAUAUUAGGAAAGUGCUUUGAAUCCCCUUGGACGACAAAAGCGUUGUCUGAGACAGCAUGCGAAGACAACAGAGGAUUGAGCAUCA
B3: chr3:41225653:41225883:+|CDS|ENSG00000168036|unk|total|mutant (ssRNA)
RNA: GGGAGUUCUACAGUCCGACGAUCCAUUACAACUCUCCACAACCUUUUAUUACAUCAAGAAGGAGCUAAAAUGGCAGUGCGUUCCGCUGGUGGGCUGCAGAAAAUGGUUGCCUUGCUCAACAAAACAAAUGUUAAAUUCUUGGCCAACAGAGGAUUGAGCAUCA
B4: chr2:112659350:112659462:+|CDS|ENSG00000144136|unk|FALSE|unique (ssRNA)
RNA: GGGAGUUCUACAGUCCGACGAUCCUUGCCAAGGUGGGAGAUUGCAUGGGAGACUCCGGUGACAAACCCUUAAGGCGCAAUAAUAGCUAUACUUCCUAUACCAUGGCAAUAUGUGGCAUGCCUCUGGAUUCAUUCCGUGCCAAACAACAGAGGAUUGAGCAUCA
B5: chr8:28970260:28970371:+|CDS|ENSG00000147421|unk|FALSE|unique (ssRNA)
RNA: GGGAGUUCUACAGUCCGACGAUCUCUUCCUCUACAGCUACAGCUUCCACACAGACGCAGCAUUCGGGAAUGUCCCCGUCACCUAGCAACAGUUAUGAUACUUCCCCACAGCCUUGCACUACCAAUCAAAAUGGGAGGGAGAAUCAACAGAGGAUUGAGCAUCA
B6: chr8:42175261:42175472:-|3pUTR|ENSG00000104368|msi1|total|mutant (ssRNA)
RNA: GGGAGUUCUACAGUCCGACGAUCGUAUUCCUUUUGUGUACAGUGUGUAAAGUGUAAAUCCUUUUUCUUUAUAAACUUCCGAGCCGCAUGAGAGAAUUGUAUCAUUUGAACAACCCGGCUUCAGCAUAUUUACCGCAAUCCAUGCAACAGAGGAUUGAGCAUCA

Each binder was assayed against MSI1 full-length (mouse, UniProt Q61474 1-362) (assay: nsRBNS (natural sequence RNA bind-n-seq); RBNS binding buffer (assumed for nsRBNS): 25 mM Tris pH 7.5, 150 mM KCl, 3 mM MgCl2, 0.01% Triton X-100, 500 ug/ml BSA, 20 U/ml SUPERase-In, 4 C; UNK is unkempt and MSI1 is Musashi-1; names of the RNAs are library labels; protein concentration not given here; high values mean tight binding).
UniProt Q61474, sequence (Q61474 whole entry): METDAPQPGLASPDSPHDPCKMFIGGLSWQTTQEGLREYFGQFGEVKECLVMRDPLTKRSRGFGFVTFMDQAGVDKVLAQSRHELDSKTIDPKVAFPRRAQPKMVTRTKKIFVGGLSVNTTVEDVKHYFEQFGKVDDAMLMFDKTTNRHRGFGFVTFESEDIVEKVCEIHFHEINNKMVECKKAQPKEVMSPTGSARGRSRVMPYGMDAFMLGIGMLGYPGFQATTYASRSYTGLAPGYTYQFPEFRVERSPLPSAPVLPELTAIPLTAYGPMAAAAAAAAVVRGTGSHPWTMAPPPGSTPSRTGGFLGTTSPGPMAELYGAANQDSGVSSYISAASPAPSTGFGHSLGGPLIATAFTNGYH

Row | Binder | binding signal [enrichment R]
1 | B1 | 0.423
2 | B2 | 1.32
3 | B3 | 0.422
4 | B4 | 0.737
5 | B5 | 0.658
6 | B6 | 0.424

Reference: paper PMC12136788
